Results are given in words; binding and its absence hold for the method and conditions named. Binding seen in cells or lysates may run through a third protein. Some results given as binding are weak or reduced against the parent protein; the word gives no strength.
T1: Smc1 E1102C (S. cerevisiae) (UniProt P32908)
T1 sequence: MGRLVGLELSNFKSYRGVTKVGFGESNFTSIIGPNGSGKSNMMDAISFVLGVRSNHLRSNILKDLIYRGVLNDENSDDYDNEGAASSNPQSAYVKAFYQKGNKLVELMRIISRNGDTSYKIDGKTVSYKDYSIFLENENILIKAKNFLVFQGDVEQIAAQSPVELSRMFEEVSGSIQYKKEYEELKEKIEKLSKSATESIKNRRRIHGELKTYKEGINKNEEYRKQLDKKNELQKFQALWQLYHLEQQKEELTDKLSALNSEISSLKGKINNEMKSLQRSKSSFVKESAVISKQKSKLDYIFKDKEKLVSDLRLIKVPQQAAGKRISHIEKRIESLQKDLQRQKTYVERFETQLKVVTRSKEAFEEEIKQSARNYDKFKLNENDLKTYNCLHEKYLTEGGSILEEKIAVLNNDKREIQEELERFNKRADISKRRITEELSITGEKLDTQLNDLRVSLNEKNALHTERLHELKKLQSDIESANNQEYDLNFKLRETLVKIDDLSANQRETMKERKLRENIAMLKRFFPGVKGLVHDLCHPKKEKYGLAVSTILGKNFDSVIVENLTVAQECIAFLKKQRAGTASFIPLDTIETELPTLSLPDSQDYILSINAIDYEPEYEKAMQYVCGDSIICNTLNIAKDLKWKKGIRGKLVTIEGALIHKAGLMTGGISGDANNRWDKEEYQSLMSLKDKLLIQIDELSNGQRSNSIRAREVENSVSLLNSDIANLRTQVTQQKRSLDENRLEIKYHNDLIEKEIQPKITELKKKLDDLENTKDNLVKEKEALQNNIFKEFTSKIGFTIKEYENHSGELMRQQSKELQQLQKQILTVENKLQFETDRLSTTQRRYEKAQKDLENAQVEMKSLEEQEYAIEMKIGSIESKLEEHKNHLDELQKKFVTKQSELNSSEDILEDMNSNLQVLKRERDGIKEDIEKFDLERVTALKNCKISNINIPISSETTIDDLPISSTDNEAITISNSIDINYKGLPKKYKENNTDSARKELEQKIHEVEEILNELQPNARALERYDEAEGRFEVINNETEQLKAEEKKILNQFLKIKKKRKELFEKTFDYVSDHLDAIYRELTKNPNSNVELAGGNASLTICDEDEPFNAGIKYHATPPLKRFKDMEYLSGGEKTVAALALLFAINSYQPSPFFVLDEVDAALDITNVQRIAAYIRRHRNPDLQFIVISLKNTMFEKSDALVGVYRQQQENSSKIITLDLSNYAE


Biological target: T1, Smc1 E1102C (S. cerevisiae)
Experiment: cross-linking; in vivo BMOE cross-link of cysteine pairs in exponentially grown yeast cells (on ice, 6 min); Scc1-PK immunoprecipitated, western blot

Binder | binding
Scc2 T1281C (protein, UniProt Q04002 1-1493) MSYPGKDKNIPGRIIEALEDLPLSYLVPKDGLAALVNAPMRVSLPFDKTIFTSADDGRDVNINVLGTANSTTSSIKNEAEKERLVFKRPSNFTSSANSVDYVPTNFLEGLSPLAQSVLSTHKGLNDSINIEKKSEIVSRPEAKHKLESVTSNAGNLSFNDNSSNKKTKTSTGVTMTQANLAEQYLNDLKNILDIVGFDQNSAEIGNIEYWLQLPNKKFVLTTNCLTKLQMTIKNITDNPQLSNSIEITWLLRLLDVMVCNIKFSKSSLKMGLDDSMLRYIALLSTIVLFNIFLLGKNDSNLHRESYIMEPVNFLSDLIESLKILTIEYGSLKIEFDTFQEALELLPKYIRNGPFLDDNVTAKLVYIFSDLLMNNDIEATTNIQFQSFWDNVKRISSDILVSLFGSFDQQRGFIIEELLSHIEKLPTKRIQKKLRKVGNQNIYITDFTFTLMSMLENINCYSFCNQMKDIAPENIDLLKNEYKKQEEFLFNIVEHINDTILERFFKNPSALRYVIDNFVQDLLLLISSPQWPVTEKILSSLLKRLLSVYSPSMQVSANIETICLQLIGNIGSTIFDIKCSTRDHEDNNLIKMINYPETLPHFFKSFEECIAYNETIKCRRSATRFLWNLRLGTILILEEYTKDAKEQIITVDNELKKILEQIKDGGLGPELENREADFSTIKLDYFSILHAFELLNLYDPYLKLILSLLAKDKIKLRSTAIKCLSMLASKDKVILSNPMVKETIHRRLNDSSASVKDAILDLVSINSSYFEFYQQINNNYNDDSIMVRKHVLRINEKMYDETNDIVTKVYVIARILMKIEDEEDNIIDMARLILLNRWILKVHEVLDQPEKLKEISSSVLLVMSRVAIMNEKCSQLFDLFLNFYLLNKEAHSKEAYDKITHVLTILTDFLVQKIVELNSDDTNEKNSIVDKQNFLNLLAKFADSTVSFLTKDHITALYPYMVSDEKSDFHYYILQVFRCTFEKLANFKQKFLYDLETTLLSRLPKMNVREIDEAMPLIWSVATHRHDTARVAKACSSCLSHLHPYINKANNEEAAIVVDGKLQRLIYLSTGFARFCFPKPSNDKIAFLQEGETLYEHITKCLLVLSKDKITHVIRRVAVKNLTKLCGNHPKLFNSRHVLHLLDKEFQSDQLDIKLVILESLYDLFLLEERKSVRNTGVNSTLSSNSILKKKLLKTNRVEFANDGVCSALATRFLDNILQLCLLRDLKNSLVAIRLLKLILKFGYTNPSHSIPTVIALFASTSQYIRHVAYELLEDLFEKYECLVFSSLSRGVTKAIHYSIHTDEKYYYKHDHFLSLLEKLCGTGKKNGPKFFKVLKRIMQSYLDDITDLTSTNSSVQKSIFVLCTNISNITFVSQYDLVSLLKTIDLTTDRLKEVIMDEIGDNVSSLSVSEEKLSGIILIQLSLQDLGTYLLHLYGLRDDVLLLDIVEESELKNKQLPAKKPDISKFSAQLENIEQYSSNGKLLTYFRKHVKDT | binds
Scc2 T1175C (natural protein, S. cerevisiae, UniProt Q04002 1-1493, looked up, Scc2, S. cerevisiae; source: S. cerevisiae W303, in vivo, whole-cell extract) MSYPGKDKNIPGRIIEALEDLPLSYLVPKDGLAALVNAPMRVSLPFDKTIFTSADDGRDVNINVLGTANSTTSSIKNEAEKERLVFKRPSNFTSSANSVDYVPTNFLEGLSPLAQSVLSTHKGLNDSINIEKKSEIVSRPEAKHKLESVTSNAGNLSFNDNSSNKKTKTSTGVTMTQANLAEQYLNDLKNILDIVGFDQNSAEIGNIEYWLQLPNKKFVLTTNCLTKLQMTIKNITDNPQLSNSIEITWLLRLLDVMVCNIKFSKSSLKMGLDDSMLRYIALLSTIVLFNIFLLGKNDSNLHRESYIMEPVNFLSDLIESLKILTIEYGSLKIEFDTFQEALELLPKYIRNGPFLDDNVTAKLVYIFSDLLMNNDIEATTNIQFQSFWDNVKRISSDILVSLFGSFDQQRGFIIEELLSHIEKLPTKRIQKKLRKVGNQNIYITDFTFTLMSMLENINCYSFCNQMKDIAPENIDLLKNEYKKQEEFLFNIVEHINDTILERFFKNPSALRYVIDNFVQDLLLLISSPQWPVTEKILSSLLKRLLSVYSPSMQVSANIETICLQLIGNIGSTIFDIKCSTRDHEDNNLIKMINYPETLPHFFKSFEECIAYNETIKCRRSATRFLWNLRLGTILILEEYTKDAKEQIITVDNELKKILEQIKDGGLGPELENREADFSTIKLDYFSILHAFELLNLYDPYLKLILSLLAKDKIKLRSTAIKCLSMLASKDKVILSNPMVKETIHRRLNDSSASVKDAILDLVSINSSYFEFYQQINNNYNDDSIMVRKHVLRINEKMYDETNDIVTKVYVIARILMKIEDEEDNIIDMARLILLNRWILKVHEVLDQPEKLKEISSSVLLVMSRVAIMNEKCSQLFDLFLNFYLLNKEAHSKEAYDKITHVLTILTDFLVQKIVELNSDDTNEKNSIVDKQNFLNLLAKFADSTVSFLTKDHITALYPYMVSDEKSDFHYYILQVFRCTFEKLANFKQKFLYDLETTLLSRLPKMNVREIDEAMPLIWSVATHRHDTARVAKACSSCLSHLHPYINKANNEEAAIVVDGKLQRLIYLSTGFARFCFPKPSNDKIAFLQEGETLYEHITKCLLVLSKDKITHVIRRVAVKNLTKLCGNHPKLFNSRHVLHLLDKEFQSDQLDIKLVILESLYDLFLLEERKSVRNCGVNSTLSSNSILKKKLLKTNRVEFANDGVCSALATRFLDNILQLCLLRDLKNSLVAIRLLKLILKFGYTNPSHSIPTVIALFASTSQYIRHVAYELLEDLFEKYETLVFSSLSRGVTKAIHYSIHTDEKYYYKHDHFLSLLEKLCGTGKKNGPKFFKVLKRIMQSYLDDITDLTSTNSSVQKSIFVLCTNISNITFVSQYDLVSLLKTIDLTTDRLKEVIMDEIGDNVSSLSVSEEKLSGIILIQLSLQDLGTYLLHLYGLRDDVLLLDIVEESELKNKQLPAKKPDISKFSAQLENIEQYSSNGKLLTYFRKHVKDT | no binding

From paper PMC10516938, “Conformational dynamics of cohesin/Scc2 loading complex are regulated by Smc3 acetylation and ATP binding” (Nature Communications, 2023)
